According to PubChem BioAssay AID1476 (National Center for Advancing Translational Sciences (NCATS), 2009):
About 4,500 (2.2%) of roughly 200,000 compounds were called active. Inconclusive results, whose numbers are uncertain, are shown with a selection of clear calls. Calls follow the shape of the dose curve; as a rule, active = well fitted inhibition curve with a large enough effect; inconclusive = small, poorly fitted or top-dose-only effect, or effect the other way; inactive = flat fitted curve, though single readings scatter. Where the call is inconclusive, the potency comes from a doubtful curve fit.

Target: Cruzipain (Trypanosoma cruzi) (UniProt P25779)
Test: qHTS Assay for Promiscuous and Specific Inhibitors of Cruzain (without detergent); also: nearly all actives have a fitted effect of over 40% in size;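 as to max response, negative = inhibition: plate controls were enzyme without inhibitor for no effect and buffer without enzyme for full effect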
Settings: purified cruzain, Z-FR-AMC fluorescence, no detergent
In short: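 Detergent-free condition (0.00005% Triton X-100) in acetate buffer pH 5.5 with DTT. 1.5 nM enzyme and compound were pre-mixed 15 min, then 2 uM Z-FR-AMC substrate added; reaction progress from fluorescence change between first and third reads (60 s).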
Potency is read from the fitted curve at half-maximal effect; tags tell the direction and shape of the fitted curve.

Sequence of UniProt P25779 (P25779 whole entry, looked up): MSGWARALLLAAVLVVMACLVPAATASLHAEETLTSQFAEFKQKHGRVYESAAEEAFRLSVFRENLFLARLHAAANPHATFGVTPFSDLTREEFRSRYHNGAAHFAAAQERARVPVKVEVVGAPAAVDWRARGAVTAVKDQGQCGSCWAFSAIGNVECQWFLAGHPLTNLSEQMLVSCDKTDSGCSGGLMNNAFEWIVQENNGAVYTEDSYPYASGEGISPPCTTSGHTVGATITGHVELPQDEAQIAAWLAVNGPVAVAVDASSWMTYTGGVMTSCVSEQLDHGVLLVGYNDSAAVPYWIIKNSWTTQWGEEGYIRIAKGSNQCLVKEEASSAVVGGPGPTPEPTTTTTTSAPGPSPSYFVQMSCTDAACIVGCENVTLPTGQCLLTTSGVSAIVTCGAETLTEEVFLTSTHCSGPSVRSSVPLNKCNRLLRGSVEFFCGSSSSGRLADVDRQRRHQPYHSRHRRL

| Structure (SMILES) | max response, negative = inhibition | Potency |
| --- | --- | --- |
| CC(=O)NCCNc1nc(-c2cccnc2)nc2ccccc12 | inactive: 3.96% | – |
| CCc1ccccc1OCCCOc1ccc(OC)cc1 | inactive: -5.59% | – |
| Cc1ccc(C)c(S(=O)(=O)ON2C(=O)c3ccccc3C2=O)c1 | – | active: 10 µM |
| COc1ccc(S(=O)(=O)N(n2c(C)nnc2-n2nc(C)cc2C)S(=O)(=O)c2ccc(OC)cc2)cc1 | inactive: -1.11% | – |
| Nc1cccc2c(N)cccc12 | inactive: 1.92% | – |
| COC(=O)CCCNC(=O)CN1CC(c2ccccc2)CC1=O (centres undefined) | – | inconclusive: 39.8 µM [activator, single point] |
| C=CCOc1ccc(/C(O)=C2/C(=O)C(=O)N(CCN3CCOCC3)C2c2ccc(C)cc2)cc1 (centres undefined) | – | inconclusive: 39.8 µM [activator, single point] |
| CC(CCC#N)[N+](=O)[O-] (centres undefined) | inactive: 4.76% | – |
| C[C@@H](C(=O)Nc1ccc2ccccc2c1)[C@@H]1C[C@@]1(C)[C@@H](NC(=O)c1ccncc1Cl)c1ccccc1 | – | inconclusive: 31.6 µM [inhibitor, single point] |
| CC(=O)CSc1nc2ccc(Nc3nc(N4CCOCC4)nc(N4CCOCC4)n3)cc2s1 | – | inconclusive: 31.6 µM [activator, single point] |
| Cc1nn(CCCC(=O)NCc2cccc(Cl)c2)c(=O)c2c1sc1ccccc12 | – | inconclusive: 31.6 µM [inhibitor, single point] |
| CC1=NN(c2ccc(C)c(C)c2)C(=O)/C1=C/c1ccc2c(c1)n(C)c(=O)n2C | – | inconclusive: 39.8 µM [activator, single point] |
| Cc1ccc(NC(=O)CN2C(=O)CCn3nc(-c4cccn4C)cc32)c(Cl)c1 | – | inconclusive: 31.6 µM [activator, single point] |
| CCc1nc(OCc2ccco2)c2sc3nc4c(cc3c2n1)COC(C)(C)C4 | – | inconclusive: 39.8 µM [activator, single point] |
| CN(C)c1ccc(NC(=O)CN2C(=O)c3ccccc3Sc3ccc(C(=O)N4CCCC4)cc32)cc1 | inactive: -6.38% | – |
| CCOC(=O)C1CCN(C(=O)Cn2ncc3c4ccccc4n(Cc4ccccc4F)c3c2=O)CC1 | – | inconclusive: 15.8 µM [activator, single point] |
| Cc1ccc(CNC(=O)Cn2c(=O)ccc3cc(S(=O)(=O)N4CCCC4)ccc32)cc1 | inactive: -9.4% | – |
| Cc1cc(NS(=O)(=O)c2ccc(Nc3nc(-c4sc(NC(=O)c5ccccc5)nc4C)cs3)cc2)no1 | – | active: 6.31 µM |
| CCn1c(SCC(=O)Nc2sc3c(c2C#N)CCCC3)nnc1-c1ccncc1 | – | inconclusive: 39.8 µM [activator, single point] |
